The list shows a part of the results.
Columns and labels:
Assay in all cases: glycan array binding signal (z-score within array); higher = stronger binding
Settings in all cases: glycan notation: IUPAC condensed, linker removed
[1] = target: Gal(a1-3)Gal(b1-4)GlcNAc(b1-2)Man
Summary of the method: (§1)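 Columns mapping to the same glycan were averaged after glycan names were converted to IUPAC-condensed notation. The data come from 3228 arrays in the Consortium for Functional Glycomics database, limited to those with an available protein sequence. Binding is reported as a within-array Z-score averaged across arrays of one protein sequence and across linkers.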

[2] = target: Gal(a1-3)Gal(b1-4)GlcNAc(b1-2)Man(a1-3)[Gal(a1-3)Gal(b1-4)GlcNAc(b1-2)Man(a1-6)]Man(b1-4)GlcNAc(b1-4)GlcNAc
Summary of the method: as §1

[3] = target: Gal(a1-3)Gal(b1-4)GlcNAc(b1-3)GalNAc
Summary of the method: as §1

[4] = target: Gal(a1-3)Gal(b1-4)GlcNAc(b1-6)GalNAc
Summary of the method: as §1

[5] = target: Gal(a1-3)Gal(b1-4)[Fuc(a1-3)]GlcNAc
Summary of the method: as §1

[6] = target: Gal(a1-3)Gal(b1-4)[Fuc(a1-3)]GlcNAc(b1-2)Man(a1-3)[Gal(a1-3)Gal(b1-4)[Fuc(a1-3)]GlcNAc(b1-2)Man(a1-6)]Man(b1-4)GlcNAc(b1-4)GlcNAc
Summary of the method: as §1

Gal(a1-3)GalNAc = target: Gal(a1-3)GalNAc
Summary of the method: as §1

[7] = target: Gal(a1-3)[Gal(a1-4)]Gal(b1-4)GlcNAc
Summary of the method: as §1

[8] = target: Gal(a1-4)Gal(b1-3)GlcNAc(b1-2)Man(a1-3)[Gal(a1-4)Gal(b1-3)GlcNAc(b1-2)Man(a1-6)]Man(b1-4)GlcNAc(b1-4)GlcNAc
Summary of the method: as §1

Gal(a1-4)Gal(b1-4)Glc = target: Gal(a1-4)Gal(b1-4)Glc
Summary of the method: as §1

Gal(a1-4)Gal(b1-4)GlcNAc = target: Gal(a1-4)Gal(b1-4)GlcNAc
Summary of the method: as §1

[9] = target: Gal(a1-4)Gal(b1-4)GlcNAc(b1-2)Man(a1-3)[Gal(a1-4)Gal(b1-4)GlcNAc(b1-2)Man(a1-6)]Man(b1-4)GlcNAc(b1-4)GlcNAc
Summary of the method: as §1

[10] = target: Gal(a1-4)Gal(b1-4)GlcNAc(b1-3)Gal(b1-4)Glc
Summary of the method: as §1

Gal(a1-4)GlcNAc = target: Gal(a1-4)GlcNAc
Summary of the method: as §1

Gal(a1-6)Glc = target: Gal(a1-6)Glc
Summary of the method: as §1

Gal(b1-2)Gal = target: Gal(b1-2)Gal
Summary of the method: as §1

Gal(b1-3)Gal = target: Gal(b1-3)Gal
Summary of the method: as §1

Gal(b1-3)Gal(b1-4)GlcNAc = target: Gal(b1-3)Gal(b1-4)GlcNAc
Summary of the method: as §1

Gal(b1-3)GalNAc = target: Gal(b1-3)GalNAc
Summary of the method: as §1

[11] = target: Gal(b1-3)GalNAc(a1-3)[Fuc(a1-2)]Gal(b1-4)Glc
Summary of the method: as §1

[12] = target: Gal(b1-3)GalNAc(a1-3)[Fuc(a1-2)]Gal(b1-4)GlcNAc
Summary of the method: as §1

Gal(b1-3)GalNAc(b1-3)Gal = target: Gal(b1-3)GalNAc(b1-3)Gal
Summary of the method: as §1

[13] = target: Gal(b1-3)GalNAc(b1-3)Gal(a1-4)Gal(b1-4)Glc
Summary of the method: as §1

[14] = target: Gal(b1-3)GalNAc(b1-4)Gal(b1-4)Glc
Summary of the method: as §1

[15] = target: Gal(b1-3)GalNAc(b1-4)[Neu5Ac(a2-3)]Gal(b1-4)Glc
Summary of the method: as §1

Gal(b1-3)GlcNAc = target: Gal(b1-3)GlcNAc
Summary of the method: as §1

[16] = target: Gal(b1-3)GlcNAc(a1-3)Gal(b1-4)GlcNAc
Summary of the method: as §1

[17] = target: Gal(b1-3)GlcNAc(a1-6)Gal(b1-4)GlcNAc
Summary of the method: as §1

Gal(b1-3)GlcNAc(b1-2)Man = target: Gal(b1-3)GlcNAc(b1-2)Man
Summary of the method: as §1

[18] = target: Gal(b1-3)GlcNAc(b1-2)Man(a1-3)[Gal(b1-3)GlcNAc(b1-2)Man(a1-6)]Man(b1-4)GlcNAc(b1-4)GlcNAc
Summary of the method: as §1

[19] = target: Gal(b1-3)GlcNAc(b1-2)Man(a1-3)[Gal(b1-3)GlcNAc(b1-2)Man(a1-6)]Man(b1-4)GlcNAc(b1-4)[Fuc(a1-6)]GlcNAc
Summary of the method: as §1

[20] = target: Gal(b1-3)GlcNAc(b1-2)Man(a1-3)[GlcNAc(b1-4)][Gal(b1-3)GlcNAc(b1-2)Man(a1-6)]Man(b1-4)GlcNAc(b1-4)GlcNAc
Summary of the method: as §1

[21] = target: Gal(b1-3)GlcNAc(b1-2)[Gal(b1-3)GlcNAc(b1-6)]Man(a1-6)[Gal(b1-3)GlcNAc(b1-2)Man(a1-3)]Man(b1-4)GlcNAc(b1-4)GlcNAc
Summary of the method: as §1

[22] = target: Gal(b1-3)GlcNAc(b1-3)Gal(b1-3)GlcNAc
Summary of the method: as §1

[23] = target: Gal(b1-3)GlcNAc(b1-3)Gal(b1-4)Glc
Summary of the method: as §1

[24] = target: Gal(b1-3)GlcNAc(b1-3)Gal(b1-4)GlcNAc
Summary of the method: as §1

[25] = target: Gal(b1-3)GlcNAc(b1-3)Gal(b1-4)GlcNAc(b1-2)Man(a1-3)[Gal(b1-3)GlcNAc(b1-3)Gal(b1-4)GlcNAc(b1-2)Man(a1-6)]Man(b1-4)GlcNAc(b1-4)GlcNAc
Summary of the method: as §1

[26] = target: Gal(b1-3)GlcNAc(b1-3)Gal(b1-4)GlcNAc(b1-2)[Gal(b1-3)GlcNAc(b1-3)Gal(b1-4)GlcNAc(b1-6)]Man(a1-6)[Gal(b1-3)GlcNAc(b1-3)Gal(b1-4)GlcNAc(b1-2)Man(a1-3)]Man(b1-4)GlcNAc(b1-4)[Fuc(a1-6)]GlcNAc
Summary of the method: as §1

[27] = target: Gal(b1-3)GlcNAc(b1-3)Gal(b1-4)GlcNAc(b1-3)Gal(b1-4)GlcNAc(b1-2)[Gal(b1-3)GlcNAc(b1-3)Gal(b1-4)GlcNAc(b1-3)Gal(b1-4)GlcNAc(b1-6)]Man(a1-6)[Gal(b1-3)GlcNAc(b1-3)Gal(b1-4)GlcNAc(b1-3)Gal(b1-4)GlcNAc(b1-2)Man(a1-3)]Man(b1-4)GlcNAc(b1-4)[Fuc(a1-6)]GlcNAc
Summary of the method: as §1

[28] = target: Gal(b1-3)GlcNAc(b1-3)Gal(b1-4)GlcNAc(b1-6)[Gal(b1-3)GlcNAc(b1-3)]Gal(b1-4)Glc
Summary of the method: as §1

[29] = target: Gal(b1-3)GlcNAc(b1-3)Gal(b1-4)[Fuc(a1-3)]GlcNAc
Summary of the method: as §1

[30] = target: Gal(b1-3)GlcNAc(b1-3)Gal(b1-4)[Fuc(a1-3)]GlcNAc(b1-6)[Gal(b1-3)GlcNAc(b1-3)]Gal(b1-4)Glc
Summary of the method: as §1

[31] = target: Gal(b1-3)GlcNAc(b1-3)GalNAc
Summary of the method: as §1

[32] = target: Gal(b1-3)GlcNAc(b1-6)Gal(b1-4)GlcNAc
Summary of the method: as §1

[33] = target: Gal(b1-3)GlcNAc(b1-6)GalNAc
Summary of the method: as §1

B1: Langerin K313I (Homo sapiens), Q9UJ71 (protein)
chain: STLNAQIPELKSDLEKASALNTKIRALQGSLENMSKLLKRQNDILQVVSQGWKYFKGNFYYFSLIPKTWYSAEQFCVSRNSHLTSVTSESEQEFLYKTAGGLIYWIGLTKAGMEGDWSWVDDTPFNKVQSARFWIPGEPNNAGNNEHCGNIKAPSLQAWNDAPCDITFLFICKRPYVPSEP
glycan array binding signal (z-score) [1]: -0.325
glycan array binding signal (z-score) [2]: 0.158
glycan array binding signal (z-score) [3]: -0.309
glycan array binding signal (z-score) [4]: -0.174
glycan array binding signal (z-score) [5]: -0.326
glycan array binding signal (z-score) [6]: 0.073
glycan array binding signal (z-score) (Gal(a1-3)GalNAc): -0.251
glycan array binding signal (z-score) [7]: -0.37
glycan array binding signal (z-score) [8]: -0.148
glycan array binding signal (z-score) (Gal(a1-4)Gal(b1-4)Glc): -0.008
glycan array binding signal (z-score) (Gal(a1-4)Gal(b1-4)GlcNAc): -0.338
glycan array binding signal (z-score) [9]: 0.017
glycan array binding signal (z-score) [10]: -0.285
glycan array binding signal (z-score) (Gal(a1-4)GlcNAc): -0.305
glycan array binding signal (z-score) (Gal(a1-6)Glc): -0.125
glycan array binding signal (z-score) (Gal(b1-2)Gal): -0.154
glycan array binding signal (z-score) (Gal(b1-3)Gal): -0.232
glycan array binding signal (z-score) (Gal(b1-3)Gal(b1-4)GlcNAc): -0.258
glycan array binding signal (z-score) (Gal(b1-3)GalNAc): -0.319
glycan array binding signal (z-score) [11]: -0.258
glycan array binding signal (z-score) [12]: -0.314
glycan array binding signal (z-score) (Gal(b1-3)GalNAc(b1-3)Gal): -0.193
glycan array binding signal (z-score) [13]: -0.275
glycan array binding signal (z-score) [14]: -0.338
glycan array binding signal (z-score) [15]: -0.31
glycan array binding signal (z-score) (Gal(b1-3)GlcNAc): -0.378
glycan array binding signal (z-score) [16]: -0.371
glycan array binding signal (z-score) [17]: -0.353
glycan array binding signal (z-score) (Gal(b1-3)GlcNAc(b1-2)Man): -0.077
glycan array binding signal (z-score) [18]: 0.043
glycan array binding signal (z-score) [19]: 0.113
glycan array binding signal (z-score) [20]: 0.366
glycan array binding signal (z-score) [21]: 0.05
glycan array binding signal (z-score) [22]: -0.356
glycan array binding signal (z-score) [23]: -0.361
glycan array binding signal (z-score) [24]: -0.339
glycan array binding signal (z-score) [25]: 0.221
glycan array binding signal (z-score) [26]: 1.58
glycan array binding signal (z-score) [27]: 1.79
glycan array binding signal (z-score) [28]: -0.391
glycan array binding signal (z-score) [29]: -0.347
glycan array binding signal (z-score) [30]: -0.333
glycan array binding signal (z-score) [31]: -0.171
glycan array binding signal (z-score) [32]: -0.399
glycan array binding signal (z-score) [33]: -0.174

— the supplement of paper PMC8728848
